{
  "source": "PubChem BioAssay AID602179",
  "about": "(National Center for Advancing Translational Sciences (NCATS), 2012)",
  "note": "The campaign covered roughly 390,000 compounds. About 360 (0.092%) were called active. Inconclusive means that the source gave no clear call. Such entries were picked first, then a sample of the others. The call rests on the fitted dose curve; in most records, active means well fitted inhibition curve with a large enough effect; inconclusive means small, poorly fitted or top-dose-only effect; inactive means no such curve, though single readings can be large or run the other way. A potency beside an inconclusive call is a rough fit, not a confirmed value. Potency means the concentration at half of the fitted maximal effect; tags describe the fitted curve by direction and shape.",
  "data": [
    {"target": "Isocitrate dehydrogenase [NADP] cytoplasmic (Homo sapiens) (UniProt O75874)", "experiment": "qHTS for Inhibitors of mutant isocitrate dehydrogenase 1 (IDH1): qHTS; further: nearly all actives have a fitted effect of over 65% in size", "conditions": "IDH1-R132H enzyme, NADPH consumption, diaphorase/resazurin fluorescence; series mostly up to 76.6 µM", "procedure,_shortened": "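IDH1-R132H (0.5 ug/mL) preincubated 30 min with compound, then NADPH (0.016 mM) and alpha-KG (2 mM) added; 80 min at RT, pH 7.5. Remaining NADPH coupled via diaphorase/resazurin to fluorescence (540/590 nm); concentration-response curves normalized to no-enzyme control.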", "values": [
      {"smiles": "Cc1cc(C2=NNC(=NC3CC3)SC2)c(C)n1-c1ccccc1F", "Potency": "inconclusive: 58.5 µM [inhibitor, single point]"},
      {"smiles": "CC1C/C(=C/c2ccncc2)C(=O)/C(=C/c2ccncc2)C1", "note": "(configuration not stated)", "Potency": "inconclusive: 58.5 µM [inhibitor, single point]"},
      {"smiles": "Cn1c(=O)c2c(SCC(=O)N3CCCc4ccccc43)nc(CC(C)(C)C)nc2n(C)c1=O", "Potency": "inconclusive: 50.1 µM [inhibitor, single point]"},
      {"smiles": "O=[N+]([O-])/C=C/c1cn(Cc2ccc(Cl)cc2)c2ccccc12", "Potency": "inconclusive: 44.7 µM [inhibitor, partial curve, poor fit]"},
      {"smiles": "Cc1ccc(C(C(=O)NC2CCCCC2)N(C(=O)Cc2c[nH]c3ccccc23)c2ccccc2)o1", "note": "(configuration not stated)", "Potency": "inconclusive: 6.56 µM [inhibitor, full curve]"},
      {"smiles": "COc1cc(NC(=O)c2cnc(N)s2)cc(C(=O)Nc2cccc(C(F)(F)F)c2)c1", "Potency": "inconclusive: 50.1 µM [inhibitor, single point]"},
      {"smiles": "Cn1c(=O)n(C)c2cc(N3CCCCC3)c(NC(=O)c3c(F)cccc3F)cc21", "Potency": "inconclusive: 63.1 µM [inhibitor, single point]"},
      {"smiles": "CCNC(=O)CN1C(=O)NC2(CCOc3ccccc32)C1=O", "note": "(configuration not stated)", "Potency": "inconclusive: 26.1 µM [inhibitor, single point]"},
      {"smiles": "CC1C/C(=C\\c2cccnc2)C(=O)/C(=C/c2cccnc2)C1", "note": "(configuration not stated)", "Potency": "inconclusive: 52.1 µM [inhibitor, partial curve]"},
      {"smiles": "CCOC(=O)c1c(NC(=O)C(C)N2CCN(C(=O)c3ccco3)CC2)sc2c1CCCC2", "note": "(configuration not stated)", "Potency": "inconclusive: 58.5 µM [inhibitor, single point]"},
      {"smiles": "O=C(N/N=C/c1ccc[nH]1)c1sc2ccccc2c1Cl", "Potency": "inactive"},
      {"smiles": "Cc1cc(C2(c3ccc(O)c(C)c3)OC(=O)c3ccccc32)ccc1O", "Potency": "inconclusive: 52.1 µM [inhibitor, single point]"},
      {"smiles": "CCOc1ccc(-c2nc(S(=O)(=O)c3ccccc3)c(NC)o2)cc1", "Potency": "inactive"},
      {"smiles": "COc1cc2c(-c3ccccc3Cl)nc3c(c(C)nn3-c3ccccc3)c2cc1OC", "Potency": "inconclusive: 6.31 µM [inhibitor, full curve]"},
      {"smiles": "Cc1cc(NC(=O)CCC(=O)N(c2ccc(F)cc2)C(C(=O)NC2CCCC2)c2ccccc2)no1", "note": "(configuration not stated)", "Potency": "inconclusive: 46.5 µM [inhibitor, partial curve]"},
      {"smiles": "Cc1ccnc(NS(=O)(=O)c2ccc(NC(=O)c3nc(SC(C)C)ncc3Cl)cc2)n1", "Potency": "inconclusive: 63.1 µM [inhibitor, single point]"},
      {"smiles": "CC(=O)Oc1ccc(S(=O)(=O)c2ccc(OC(C)=O)cc2)cc1", "Potency": "inconclusive: 50.1 µM [inhibitor, single point]"},
      {"smiles": "CC1=CC(=O)C(Sc2ccc(C)cc2)=CC1=O", "Potency": "inactive"},
      {"smiles": "NN/C(=C\\[N+](=O)[O-])Nc1ccccc1", "Potency": "inactive"},
      {"smiles": "CC(C)Cc1ccc(C(C)CC2=CCC(CN(C)C)C2=O)cc1", "note": "(configuration not stated)", "Potency": "inconclusive: 58.5 µM [inhibitor, single point]"},
      {"smiles": "O=C(Nc1ccc(N2CCOCC2)c(S(=O)(=O)Nc2ccccc2Cl)c1)c1ccccc1", "Potency": "inactive"},
      {"smiles": "Cc1cccc(N(C(=O)Cc2cccs2)C(C(=O)NC2CCCC2)c2ccsc2)c1", "note": "(configuration not stated)", "Potency": "inconclusive: 4.65 µM [inhibitor, full curve]"},
      {"smiles": "O=C(O)c1ccc(N/N=C/C2=C(N3CCOCC3)C(=C\\c3ccccc3)/CC2)cc1", "Potency": "inconclusive: 58.5 µM [inhibitor, partial curve, poor fit]"},
      {"smiles": "CCOC(=O)CSc1ncnc2c1c(-c1ccccc1)cn2-c1ccc(OC)cc1", "Potency": "inconclusive: 50.1 µM [inhibitor, single point]"},
      {"smiles": "O=C(COc1ccccc1)NC(=S)Nc1ccc2c3c(cccc13)CC2", "Potency": "inactive"},
      {"smiles": "CC(Nc1nc(N2CCNCC2)nc2ccccc12)c1ccccc1", "note": "(configuration not stated)", "Potency": "inconclusive: 14.7 µM [inhibitor, full curve]"},
      {"smiles": "Cc1ccccc1C(=O)NCc1ccc2c(c1)CCN2C(=O)c1ccc(F)cc1", "Potency": "inconclusive: 63.1 µM [inhibitor, single point]"},
      {"smiles": "CCC1C2CN(C(C)=O)CC=C2C(C#N)=C(N)C1(C#N)C#N", "note": "(configuration not stated)", "Potency": "inconclusive: 16.5 µM [inhibitor, full curve]"},
      {"smiles": "COc1ccc(C(C(=O)NC2CCCCC2)N(C(=O)c2snc(C(N)=O)c2N)c2ccccc2OC)cc1", "note": "(configuration not stated)", "Potency": "inconclusive: 52.1 µM [inhibitor, partial curve]"},
      {"smiles": "Brc1ccc(C2=Nn3c(nnc3-c3n[nH]c4c3CCC4)SC2)cc1", "Potency": "inconclusive: 58.5 µM [inhibitor, single point]"},
      {"smiles": "COc1ccc(NC(=O)c2ccc(NC(=O)c3cccs3)cc2)cc1", "Potency": "inactive"},
      {"smiles": "CC1(C)CC(=O)C2=C(C1)Oc1nc3ccccc3cc1C2C(C#N)C#N", "note": "(configuration not stated)", "Potency": "inactive"},
      {"smiles": "O=C(Cc1ccccc1)NNC(=O)c1cccs1", "Potency": "inactive"},
      {"smiles": "COc1ccccc1-n1cc(C(=O)NCC(=O)N2CCN(c3ccccc3)CC2)c2ccccc2c1=O", "Potency": "inactive"},
      {"smiles": "N/C(=N\\O)c1ccccc1N1CCCCC1", "Potency": "inactive"},
      {"smiles": "CCOC(=O)c1cc(-c2ccc(OC)cc2)nc2c1c(C)nn2CCC(N)=S", "Potency": "inconclusive: 46.5 µM [inhibitor, partial curve, poor fit]"},
      {"smiles": "COc1ccc(C(=O)NCCS(=O)(=O)NCc2ccc(C)cc2)cc1", "Potency": "inactive"},
      {"smiles": "O=C(O)c1ccccc1NS(=O)(=O)c1cccc(N=Nc2c(O)[nH]c(=S)[nH]c2=O)c1", "Potency": "inactive"},
      {"smiles": "CCc1sc(C(=O)N(CCCOC)c2c(N)n(CC(C)C)c(=O)[nH]c2=O)cc1C", "Potency": "inactive"},
      {"smiles": "CN1CCc2cc(O)c(O)cc2C(c2ccccc2)C1", "note": "(configuration not stated)", "Potency": "inactive"},
      {"smiles": "Cc1ccc(C2c3c(-c4cc(C)ccc4O)n[nH]c3C(=O)N2Cc2ccco2)cc1", "note": "(configuration not stated)", "Potency": "active: 35.5 µM"},
      {"smiles": "CC(C)C[C@H](NC(=O)c1nc[nH]c1C(=O)NCc1ccc(CNC(=O)OC(C)(C)C)cc1)C(=O)OC(C)(C)C", "Potency": "inconclusive: 22.4 µM [inhibitor, single point]"},
      {"smiles": "CC(=O)c1ccc(N2CCN(c3ccc(NC(=O)c4cccs4)cc3C(=O)O)CC2)cc1", "Potency": "inconclusive: 63.1 µM [inhibitor, single point]"},
      {"smiles": "COCCN=C1Sc2nc3cc(C)c(C)cc3cc2CN1Cc1cccs1", "Potency": "inactive"},
      {"smiles": "COc1cc2cnc(-c3ccccc3)c(-c3cc(OC)c(OC)c(OC)c3)c2cc1OC", "Potency": "inconclusive: 44.7 µM [inhibitor, partial curve, poor fit]"},
      {"smiles": "Cc1ccc(N2C(=O)CCSC23C(=O)N(Cc2ccccc2)c2ccccc23)cc1", "note": "(configuration not stated)", "Potency": "inconclusive: 39.8 µM [inhibitor, partial curve]"},
      {"smiles": "O=[N+]([O-])c1ccc2nc(-c3ccc(Cl)cc3)n(OCc3ccccc3)c2c1", "Potency": "inactive"},
      {"smiles": "O=C1CCCC2=C1C(c1ccc(O)c(Br)c1)C1=C(CCCC1=O)N2c1ccccc1", "Potency": "inconclusive: 14.7 µM [inhibitor, single point]"},
      {"smiles": "Cc1cc(C)c(-c2n[nH]c3c2C(c2ccccc2F)N(Cc2ccco2)C3=O)c(O)c1", "note": "(configuration not stated)", "Potency": "inconclusive: 50.1 µM [inhibitor, single point]"},
      {"smiles": "COC(=O)/C(=C(/F)Sc1cc(C)c(O)c(C)c1)C(F)(F)F", "Potency": "inconclusive: 52.1 µM [inhibitor, partial curve, poor fit]"},
      {"smiles": "CC(=O)N1CCc2c(sc3c2c(=O)n(Cc2ccccc2)c(=O)n3Cc2ccccc2F)C1", "Potency": "inconclusive: 44.7 µM [inhibitor, partial curve, poor fit]"},
      {"smiles": "COc1cccc(N2CCN(C(=O)C3CCCN(S(=O)(=O)c4cccc5nsnc45)C3)CC2)c1", "note": "(configuration not stated)", "Potency": "inactive"},
      {"smiles": "CC(NC(=O)COC(=O)CNC(=O)c1ccccc1Cl)C1CC2CCC1C2", "note": "(configuration not stated)", "Potency": "inactive"},
      {"smiles": "c1ccc(N(c2ccccc2)c2nc(-n3ccnc3)nc(-n3ccnc3)n2)cc1", "Potency": "inconclusive: 16.5 µM [inhibitor, partial curve, poor fit]"},
      {"smiles": "CCOc1ccc(C(=O)N2CCN(c3cccc(C)c3C)CC2)cc1", "Potency": "inactive"},
      {"smiles": "CC(=O)Nc1ccc(-c2cc(C(=O)O)c3ccccc3n2)cc1", "Potency": "inactive"},
      {"smiles": "COc1cc(SC#N)ccc1N=Cc1c(C)[nH]n(-c2ccc(Cl)cc2)c1=O", "Potency": "inconclusive: 46.5 µM [inhibitor, partial curve]"},
      {"smiles": "O=C1NC[C@H](Cc2ccccc2)N(C[C@H]2CCCN2C[C@H](Cc2ccccc2)N2C[C@H](Cc3ccc(O)cc3)N(CC3CCCCCC3)C(=O)C2=O)C1=O", "Potency": "inconclusive: 28.2 µM [inhibitor, full curve]"},
      {"smiles": "CCCOc1ccc(C2c3c(-c4ccccc4O)n[nH]c3C(=O)N2Cc2ccncc2)cc1OCC", "note": "(configuration not stated)", "Potency": "inconclusive: 50.1 µM [inhibitor, single point]"},
      {"smiles": "Cc1ccc(Nc2c(-c3ccc(C)cc3)nc3cnccn23)cc1", "Potency": "inconclusive: 50.1 µM [inhibitor, single point]"},
      {"smiles": "CCOC(=O)c1c(C)c(-c2ccccc2)n(CC(=O)Nc2cc(OC)cc(OC)c2)c1C", "Potency": "inactive"},
      {"smiles": "COc1ccc(N=C2S/C(=C\\c3ccc(OC(C)C(=O)O)c(OC)c3)C(=O)N2CCc2c[nH]c3ccccc23)cc1", "note": "(configuration not stated)", "Potency": "inconclusive: 36.9 µM [inhibitor, partial curve]"},
      {"smiles": "Cc1cc(C)nc(SCCC(=O)Nc2cccc3ccccc23)n1", "Potency": "inactive"},
      {"smiles": "CN1/C(=C\\C=C2/C(=O)Oc3ccccc3C2=O)C(C)(C)c2ccccc21", "Potency": "active: 36.9 µM"},
      {"smiles": "NNC(=O)CNC(c1ccccc1)c1cc(Br)ccc1NC(=O)c1cccc(Cl)c1", "note": "(configuration not stated)", "Potency": "inconclusive: 58.5 µM [inhibitor, single point]"},
      {"smiles": "N#C/C(=C\\c1c(N(Cc2ccccc2)Cc2ccccc2)nc2ccccn2c1=O)C(N)=O", "Potency": "inconclusive: 44.7 µM [inhibitor, partial curve, poor fit]"},
      {"smiles": "O=C(NC1CCCCC1)c1cc(Nc2cccc(C(F)(F)F)c2)nc2ccccc12", "Potency": "inconclusive: 50.1 µM [inhibitor, single point]"}
    ]}
  ]
}
